# Test results taken from publication PMC4336329 (PLoS ONE, 2015).
# Among all 310,000 compounds or so, about 14,000 (4.5%) showed an effect of 50% or more. The effect is printed as a negative number. This is one part of the list.
# Target: human ether-à-go-go-related gene (hERG) potassium channel (human, UniProt Q12809)
# Assay: primary screen, population patch clamp on CHO cells stably expressing hERG
# 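Further: peak tail current of the secondary pulse compared with the same well before compound.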
# human ether-à-go-go-related gene (hERG) potassium channel, sequence (Q12809 whole entry, looked up): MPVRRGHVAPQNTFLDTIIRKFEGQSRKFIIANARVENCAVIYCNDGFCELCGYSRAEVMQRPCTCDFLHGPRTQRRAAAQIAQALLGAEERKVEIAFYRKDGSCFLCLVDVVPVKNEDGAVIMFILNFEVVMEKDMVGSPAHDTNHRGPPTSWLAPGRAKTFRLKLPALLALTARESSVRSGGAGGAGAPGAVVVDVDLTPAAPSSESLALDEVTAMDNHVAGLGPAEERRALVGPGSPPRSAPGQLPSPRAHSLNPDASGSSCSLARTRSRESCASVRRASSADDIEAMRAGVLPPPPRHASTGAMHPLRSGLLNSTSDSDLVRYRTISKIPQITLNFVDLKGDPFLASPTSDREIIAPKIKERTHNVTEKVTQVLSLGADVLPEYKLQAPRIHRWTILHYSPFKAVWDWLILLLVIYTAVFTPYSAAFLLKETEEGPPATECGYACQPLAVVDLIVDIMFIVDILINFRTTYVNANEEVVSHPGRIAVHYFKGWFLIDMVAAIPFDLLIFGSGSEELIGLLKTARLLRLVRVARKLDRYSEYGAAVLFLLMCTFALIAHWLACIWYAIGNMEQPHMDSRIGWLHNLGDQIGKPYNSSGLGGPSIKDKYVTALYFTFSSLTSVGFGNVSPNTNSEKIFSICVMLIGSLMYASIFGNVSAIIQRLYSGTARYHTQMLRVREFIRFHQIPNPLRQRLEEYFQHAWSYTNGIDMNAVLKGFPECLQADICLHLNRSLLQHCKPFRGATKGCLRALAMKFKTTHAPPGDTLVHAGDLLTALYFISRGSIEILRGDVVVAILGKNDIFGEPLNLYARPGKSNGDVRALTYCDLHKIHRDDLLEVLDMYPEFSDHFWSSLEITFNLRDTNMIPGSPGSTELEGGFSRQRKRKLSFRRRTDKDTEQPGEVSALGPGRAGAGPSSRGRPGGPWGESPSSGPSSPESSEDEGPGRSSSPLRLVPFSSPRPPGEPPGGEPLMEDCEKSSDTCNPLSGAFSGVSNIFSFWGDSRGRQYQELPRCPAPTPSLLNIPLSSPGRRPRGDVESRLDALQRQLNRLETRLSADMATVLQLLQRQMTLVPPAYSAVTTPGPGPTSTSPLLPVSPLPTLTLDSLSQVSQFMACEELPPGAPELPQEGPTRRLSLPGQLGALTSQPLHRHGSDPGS
row,SMILES,"hERG current change (%, negative = inhibition) at 10uM"
1,O=C(CSc1ccc2ccccc2c1)NC1CCCc2ccccc21 (centres unmarked),8.2%
2,COc1cc(C(=O)Oc2ccccc2)ccc1OCc1c(C)noc1C,13.2%
3,Cc1ccc(C)c(NS(=O)(=O)c2c(C)ccc3nsnc23)c1,-3.02%
4,CCOc1ccc(N2C(=O)CC(N3CCN(C4CCc5ccccc5C4)CC3)C2=O)cc1 (centres unmarked),-71.5%
5,Cc1cccc(NS(=O)(=O)c2ccc3c(c2)OCCO3)c1,-3.57%
6,CC(=O)Nc1ccc(S(=O)(=O)N(C)CC(=O)Nc2cccc(S(=O)(=O)N3CCCC3)c2)cc1,-8.1%
7,O=C(NCCCN1CCOCC1)c1c(F)cccc1F,-0.65%
8,Cn1c(SCC(=O)N2CCN(S(=O)(=O)c3ccc(Cl)cc3)CC2)nc2ccccc21,-32.3%
9,C=CCSc1nnc(NC(=O)Cn2cnc3c2c(=O)n(C)c(=O)n3C)s1,19%
10,COc1ccc(NC(=O)Cc2nnc(SCC(=O)c3ccc(F)cc3)n2C)cc1,14%
11,Cc1csc2ncc(C(=O)N3CCc4ccccc43)c(=O)n12,15.1%
12,COc1cccc(-n2c(=O)[nH]cc(C(=O)Nc3ccc(NC(C)=O)cc3)c2=O)c1,5.09%
13,CCOc1ccc(C(=O)CC(C(=O)O)N2CCN(Cc3ccccc3)CC2)cc1 (centres unmarked),11%
14,O=C(O)/C=C/c1ccc([N+](=O)[O-])o1,22.2%
15,COC(=O)Cn1cc(C(=O)OC)cc(Br)c1=O,6.25%
16,Cc1csc(SCC(=O)Nc2cccc(S(=O)(=O)N3CCCC3)c2)n1,-25%
17,Clc1ccc(/C=N/NC2=Nc3cccc4cccc2c34)cc1,0.137%
18,CN(C)S(=O)(=O)N1CCN(c2ccc(Cl)cc2)CC1,-14.4%
19,Cc1cc(C)nc(NC(=S)Nc2cccc(Cl)c2Cl)c1,33%
20,CCc1ccccc1N1C(=O)C2CC(C)=C(C)CC2C1=O (centres unmarked),17.8%
21,CCCn1nnnc1NCc1ccc(N(C)C)cc1,1.95%
22,CCC(C)N(C(=O)COC(=O)c1[nH]c(C)c(C(C)=O)c1C)C1CCS(=O)(=O)C1 (centres unmarked),-1.68%
23,COc1ccc(S(=O)(=O)N2CCOCC2)cc1NC(=O)c1ccc(OCC(C)C)c(OC)c1,-29.4%

row,SMILES,"hERG current change (%, negative = inhibition) at 10uM"
1,Cc1cc(C)cc(C(=O)OCC(=O)N2CCCC2)c1,9.79%
2,O=c1[nH]c2ccc(S(=O)(=O)N3CCCCC3)cc2o1,8.95%
3,O=C(N/N=C\c1cccnc1)c1ccc(Cl)s1,6.85%
4,Cc1sc2nc(C3CC3)nc(N3CCN(S(=O)(=O)c4ccc(F)cc4)CC3)c2c1C,-0.18%
5,CCC1=C(OC(=O)N(CC)CC)N2C(=O)OC(=NCC3CC3)[C@]2(Cc2ccccc2)[C@H]2C1=CC[C@H]1C(=O)N(CC(=O)OC)C(=O)[C@H]12,-10.3%
6,O=C(O)C(=O)/C(=C\c1ccc(Cl)cc1)c1ccc2ccccc2n1,-10.2%
7,CC1CN(C(=O)c2ccc3c(c2)OCO3)CC(C)O1 (centres unmarked),-8.76%
8,COc1cc(C=O)ccc1OC(=O)c1cccnc1,12.2%
9,COc1ccc(NC(=O)CCCn2c(=O)c3sccc3n(Cc3cccc(C)c3)c2=O)cc1,12.7%
10,CC1(C)Cc2ccccc2C(=NC(Cc2c[nH]c3ccccc23)C(=O)O)N1 (centres unmarked),10.9%
11,Cc1c(CCOC(=O)CC23CC4CC(CC(C4)C2)C3)sc[n+]1CC(=O)c1ccccc1.[Br-],-59.4%
12,CCOc1ccc(N2CC(C(=O)Nc3ccc(S(=O)(=O)N4CCCCC4)cc3)CC2=O)cc1 (centres unmarked),-7.53%
13,COC(=O)c1nnn(-c2nonc2N)c1CSc1nc2ccccc2s1,-0.516%
14,COc1ccccc1-c1nnc2sc(COc3ccc(Cl)cc3)nn12,-37.8%
15,N#C/C(=C/c1ccc(F)cc1)C(N)=S,36.4%
16,O=C(O)CCn1cc(C=C2C(=O)NC(=O)NC2=O)c(-c2cc3ccccc3oc2=O)n1,61.9%
17,O=C(CCc1nc(-c2ccccc2F)no1)NCCN1CCc2ccccc2C1,-50.4%
18,CN(CC(=O)Nc1cccc(F)c1)CC(=O)Nc1ccccc1[N+](=O)[O-],-15%
19,O=C(/C=C/c1ccc(Cl)cc1Cl)n1cccn1,6.36%
20,CC(C)c1ccc(NC(=O)c2cc3c(=O)n(C)c4ccccc4c3n2C)cc1,6.96%
21,c1ccc2[nH]cnc2c1,9.04%
22,Cc1cc(NC(=O)CNCC(c2ccccc2)N(C)C)c([N+](=O)[O-])cc1C (centres unmarked),-32.8%
23,Cc1ccccc1-n1c(=O)cc(N2CCc3ccccc3C2)[nH]c1=O,-17.1%

row,SMILES,"hERG current change (%, negative = inhibition) at 10uM"
1,Cc1ccccc1OCC(=O)Nc1ccccc1-c1ccccc1,-4.81%
2,CCOC(=O)c1c(S(=O)(=O)Nc2ccc(F)cc2C)c(C)n(C)c1C,-9.73%
3,CCOC(=O)c1sc(NC(=S)NC(=O)c2ccccc2)c(C(=O)OCC)c1C,15.2%
4,O=Cc1c(NC2CCCCC2)c2ccccc2[nH]c1=O,2.88%
5,CCN(CC)CCNC(=O)Cn1nc(Cc2cccnc2)c2ccccc2c1=O,4.74%
6,Cc1ccccc1-n1c([C@@H]2C[C@H]2c2ccccc2)n[nH]c1=S,8.61%
7,O=C(CCS(=O)(=O)c1ccc2c(c1)NC(=O)CO2)NCCc1ccccc1,-0.677%
8,CC1=CSC2=NS(=O)(=O)CCN12,12.7%
9,CC(C)(C)n1nnnc1C(c1ccccn1)N(Cc1ccccc1)Cc1ccc(Cl)cc1 (centres unmarked),16.3%
10,CC1CCN(C(=O)/C(=C\c2ccccc2)NC(=O)c2ccccc2)CC1,-15.8%
11,CN(C)CCNc1oc(-c2ccccc2Cl)nc1S(=O)(=O)c1ccccc1,-35.7%
12,CCN(CC)C(=O)Oc1ccc(NC(C)=O)cc1,30.2%
13,CCc1cccc(CC)c1NC(=O)COC(=O)C1(C)CC1(Cl)Cl (centres unmarked),63.2%
14,COc1ccc2ccccc2c1/C=N/NC(=S)NCCN1CCOCC1,15.5%
15,NC(=O)c1ccc2c(=O)n3c(-c4cccs4)csc3nc2c1,7.83%
16,COc1ccc(NC(=O)c2ccco2)cc1N,-3.25%
17,CC(=O)c1ccc(OCC(O)CN2CCCC(C)C2)cc1.Cl (centres unmarked),-1.2%
18,COc1ccccc1N=c1c2c([N+](=O)[O-])cc([N+](=O)[O-])cc2n(O)n1-c1ccccc1OC,11.9%
19,COc1ccc(C2CC(c3ccccc3)=NN2C(=O)CN2N=NC3C(=O)N(c4cccc(F)c4)C(=O)C32)cc1 (centres unmarked),1.36%
20,CC(CN1CCOCC1)OC(=O)c1ccc(Br)cc1.Cl (centres unmarked),-5.15%
21,C=CCn1c(SCC(=O)c2ccccc2)nnc1-c1ccc2c(c1)OCO2,-21.4%
22,Cc1ccc(-c2noc(CCC(=O)Nc3ccc(C)cn3)n2)cc1,14%
23,CCOc1cc(C(=O)OCC(=O)NCc2ccco2)cc(OCC)c1OCC,6.23%

row,SMILES,"hERG current change (%, negative = inhibition) at 10uM"
1,O=C(CCC1CCCN(C(=O)c2cncs2)C1)NCc1ccc(F)c(F)c1 (centres unmarked),-12.5%
2,CCc1sc(C(C2C(=O)CC(C)(C)CC2=O)C2C(=O)CC(C)(C)CC2=O)cc1[N+](=O)[O-],-5.07%
3,O=C(Nc1ccc(N2CCN(C(=O)c3ccccc3)CC2)cc1)c1cccs1,-15.3%
4,O=C(Cn1nnc(-c2ccc(CN3CCOCC3)cc2)n1)N1CCCc2ccccc21,-23.9%
5,CCCCN=C(N)/C(C(=O)OCC)=C(\O)c1ccc(OC)cc1,-28.1%
6,Cc1ccc2nc(-c3ccc(SCC(=O)Nc4ccc5c(c4)OCCO5)nc3)[nH]c2c1,-5.51%
7,Cc1cc(C)n(CCC(=O)Nc2ccc(-c3ccno3)cc2)n1,-0.648%
8,Cc1nc(S(=O)(=O)N(C)c2ccccc2)c(C#N)c(C)c1Cl,-14.3%
9,CCCCn1c(CCC)nc([N+](=O)[O-])c1Sc1ccc(Cl)cn1,-53.2%
10,Cc1ccc(S(=O)(=O)N2CCC(=O)N(CCOCc3cccc(F)c3)CC2)cc1,-9.56%
11,Cc1ccc(NC(=O)C2CCCCC2C(=O)O)cc1Cl (centres unmarked),2.46%
12,CCCc1cc(=O)n2nc(N3CCC(C(=O)N4CCN(c5cccc(OC)c5)CC4)CC3)sc2n1,-40.6%
13,CCc1nc2ccccc2[nH]1,-27.2%
14,CNC(=O)CSc1nnc(-c2cc(C)cc(C)c2)o1,-11.3%
15,CC(=O)N1c2ccc3ccccc3c2C(C)CC12CCCCC2 (centres unmarked),-0.0349%
16,Cc1ccc2cc(C)c(SCC#N)nc2c1,15%
17,CN1CCN(CCn2c(=S)[nH]c3ccccc3c2=O)CC1,6.07%
18,CCCCc1ccc(/C=C2/C(=O)ON=C2c2ccccc2)s1,10.7%
19,O=C(NC1CCCC1)C1CCCN1C(=O)Nc1ccccc1 (centres unmarked),19%
20,COc1ccc(N/C(N)=N/c2nc(C)c(Cc3ccccc3)c(=O)[nH]2)cc1,12%
